# Source: the supplement of paper PMC8728848
# The other results are listed elsewhere or left out.
# Legend:
# Experiment in all cases: glycan array binding signal (z-score within array); higher = stronger binding
# Settings in all cases: glycan notation: IUPAC condensed, linker removed
# Gal3S4S(b1-4)GlcNAc = target: Gal3S4S(b1-4)GlcNAc
# In short: (§1)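 Arrays were curated from the Consortium for Functional Glycomics database, 3228 in total, and kept only where the protein sequence was available. Binding is expressed as a within-array Z-score. This score was averaged across arrays of the same protein sequence at different concentrations or buffers and across linkers, and negative values can be read as non-binding.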
# Gal3S6S(b1-4)GlcNAc = target: Gal3S6S(b1-4)GlcNAc
# In short: as §1
# Gal3S6S(b1-4)GlcNAc6S = target: Gal3S6S(b1-4)GlcNAc6S
# In short: as §1
# Gal4S(b1-4)GlcNAc = target: Gal4S(b1-4)GlcNAc
# In short: as §1
# Gal4S6S(b1-4)GlcNAc = target: Gal4S6S(b1-4)GlcNAc
# In short: as §1
# Gal6P(b1-4)GlcNAc = target: Gal6P(b1-4)GlcNAc
# In short: as §1
# Gal6S(b1-3)GlcNAc = target: Gal6S(b1-3)GlcNAc
# In short: as §1
# Gal6S(b1-3)GlcNAc6S = target: Gal6S(b1-3)GlcNAc6S
# In short: as §1
# Gal6S(b1-4)Glc = target: Gal6S(b1-4)Glc
# In short: as §1
# Gal6S(b1-4)Glc6S = target: Gal6S(b1-4)Glc6S
# In short: as §1
# Gal6S(b1-4)GlcNAc = target: Gal6S(b1-4)GlcNAc
# In short: as §1
# Gal6S(b1-4)GlcNAc6S = target: Gal6S(b1-4)GlcNAc6S
# In short: as §1
# GalNAc(a1-3)Gal = target: GalNAc(a1-3)Gal
# In short: as §1
# GalNAc(a1-3)GalNAc = target: GalNAc(a1-3)GalNAc
# In short: as §1
# [1] = target: GalNAc(a1-3)GalNAc(a1-3)Gal(a1-4)Gal(b1-4)GlcNAc
# In short: as §1
# [2] = target: GalNAc(a1-3)GalNAc(b1-3)Gal(a1-4)Gal(b1-4)Glc
# In short: as §1
# [3] = target: GalNAc(a1-3)GalNAc(b1-3)Gal(a1-4)Gal(b1-4)GlcNAc
# In short: as §1
# GalNAc(b1-3)Gal = target: GalNAc(b1-3)Gal
# In short: as §1
# [4] = target: GalNAc(b1-3)Gal(a1-4)Gal(b1-4)GlcNAc
# In short: as §1
# [5] = target: GalNAc(b1-3)Gal(a1-4)Gal(b1-4)GlcNAc(b1-3)Gal(b1-4)Glc
# In short: as §1
# [6] = target: GalNAc(b1-3)Gal(a1-6)Gal(b1-4)Glc
# In short: as §1
# GalNAc(b1-3)GalNAc = target: GalNAc(b1-3)GalNAc
# In short: as §1
# GalNAc(b1-3)GlcNAc = target: GalNAc(b1-3)GlcNAc
# In short: as §1
# GalNAc(b1-4)Gal(b1-4)Glc = target: GalNAc(b1-4)Gal(b1-4)Glc
# In short: as §1
# GalNAc(b1-4)GlcNAc = target: GalNAc(b1-4)GlcNAc
# In short: as §1
# [7] = target: GalNAc(b1-4)GlcNAc(b1-2)Man
# In short: as §1
# [8] = target: GalNAc(b1-4)GlcNAc(b1-2)Man(a1-3)[GalNAc(b1-4)GlcNAc(b1-2)Man(a1-6)]Man(b1-4)GlcNAc(b1-4)GlcNAc
# In short: as §1
# [9] = target: GalNAc(b1-4)GlcNAc(b1-3)GalNAc(b1-4)GlcNAc
# In short: as §1
# GalNAc(b1-4)GlcNAc6S = target: GalNAc(b1-4)GlcNAc6S
# In short: as §1
# GalNAc(b1-6)GalNAc = target: GalNAc(b1-6)GalNAc
# In short: as §1
# GalNAc3S(b1-4)GlcNAc = target: GalNAc3S(b1-4)GlcNAc
# In short: as §1
# GalNAc3S(b1-4)GlcNAc3S = target: GalNAc3S(b1-4)GlcNAc3S
# In short: as §1
# [10] = target: GalNAc3S(b1-4)[Fuc(a1-3)]GlcNAc
# In short: as §1
# GalNAc4S6S(b1-4)GlcNAc = target: GalNAc4S6S(b1-4)GlcNAc
# In short: as §1
# GalNAc6S(b1-4)GlcNAc = target: GalNAc6S(b1-4)GlcNAc
# In short: as §1
# Glc(a1-4)Glc = target: Glc(a1-4)Glc
# In short: as §1
# [11] = target: Glc(a1-4)Glc(a1-4)Glc(a1-4)Glc
# In short: as §1
# Glc(a1-6)Glc(a1-6)Glc = target: Glc(a1-6)Glc(a1-6)Glc
# In short: as §1
# [12] = target: Glc(a1-6)Glc(a1-6)Glc(a1-6)Glc
# In short: as §1
# Glc(b1-4)Glc = target: Glc(b1-4)Glc
# In short: as §1
# Glc(b1-6)Glc = target: Glc(b1-6)Glc
# In short: as §1
# GlcA(b1-3)Gal = target: GlcA(b1-3)Gal
# In short: as §1
# GlcA(b1-3)GlcNAc = target: GlcA(b1-3)GlcNAc
# In short: as §1
# GlcA(b1-6)Gal = target: GlcA(b1-6)Gal
# In short: as §1
# [13] = target: GlcA3S(b1-3)Gal(b1-4)GlcNAc(b1-2)Man
# In short: as §1
binder,measurement,setting,value
WGA (Triticum vulgare) (protein) QRCGEQGSNMECPNNLCCSQYGYCGMGGDYCGKGCQNGACWTSKRCGSQAGGATCPNNHCCSQYGHCGFGAEYCGAGCQGGPCRADIKCGSQSGGKLCPNNLCCSQWGFCGLGSEFCGGGCQSGACSTDKPCGKDAGGRVCTNNYCCSKWGSCGIGPGYCGAGCQSGGCDAVFAGAITANSTLLAE,glycan array binding signal (z-score),Gal3S4S(b1-4)GlcNAc,-0.074
same,glycan array binding signal (z-score),Gal3S6S(b1-4)GlcNAc,-0.383
same,glycan array binding signal (z-score),Gal3S6S(b1-4)GlcNAc6S,-0.356
same,glycan array binding signal (z-score),Gal4S(b1-4)GlcNAc,0.744
same,glycan array binding signal (z-score),Gal4S6S(b1-4)GlcNAc,-0.388
same,glycan array binding signal (z-score),Gal6P(b1-4)GlcNAc,-0.418
same,glycan array binding signal (z-score),Gal6S(b1-3)GlcNAc,-0.372
same,glycan array binding signal (z-score),Gal6S(b1-3)GlcNAc6S,-0.395
same,glycan array binding signal (z-score),Gal6S(b1-4)Glc,-0.342
same,glycan array binding signal (z-score),Gal6S(b1-4)Glc6S,-0.321
same,glycan array binding signal (z-score),Gal6S(b1-4)GlcNAc,-0.369
same,glycan array binding signal (z-score),Gal6S(b1-4)GlcNAc6S,-0.371
same,glycan array binding signal (z-score),GalNAc(a1-3)Gal,0.581
same,glycan array binding signal (z-score),GalNAc(a1-3)GalNAc,-0.302
same,glycan array binding signal (z-score),[1],-0.324
same,glycan array binding signal (z-score),[2],-0.322
same,glycan array binding signal (z-score),[3],-0.319
same,glycan array binding signal (z-score),GalNAc(b1-3)Gal,-0.318
same,glycan array binding signal (z-score),[4],0.119
same,glycan array binding signal (z-score),[5],-0.333
same,glycan array binding signal (z-score),[6],-0.316
same,glycan array binding signal (z-score),GalNAc(b1-3)GalNAc,-0.108
same,glycan array binding signal (z-score),GalNAc(b1-3)GlcNAc,-0.292
same,glycan array binding signal (z-score),GalNAc(b1-4)Gal(b1-4)Glc,-0.265
same,glycan array binding signal (z-score),GalNAc(b1-4)GlcNAc,2.78
same,glycan array binding signal (z-score),[7],2.71
same,glycan array binding signal (z-score),[8],2.38
same,glycan array binding signal (z-score),[9],2.8
same,glycan array binding signal (z-score),GalNAc(b1-4)GlcNAc6S,1.43
same,glycan array binding signal (z-score),GalNAc(b1-6)GalNAc,1
same,glycan array binding signal (z-score),GalNAc3S(b1-4)GlcNAc,0.055
same,glycan array binding signal (z-score),GalNAc3S(b1-4)GlcNAc3S,-0.384
same,glycan array binding signal (z-score),[10],-0.364
same,glycan array binding signal (z-score),GalNAc4S6S(b1-4)GlcNAc,-0.368
same,glycan array binding signal (z-score),GalNAc6S(b1-4)GlcNAc,2.33
same,glycan array binding signal (z-score),Glc(a1-4)Glc,-0.332
same,glycan array binding signal (z-score),[11],-0.309
same,glycan array binding signal (z-score),Glc(a1-6)Glc(a1-6)Glc,-0.364
same,glycan array binding signal (z-score),[12],-0.349
same,glycan array binding signal (z-score),Glc(b1-4)Glc,-0.351
same,glycan array binding signal (z-score),Glc(b1-6)Glc,-0.351
same,glycan array binding signal (z-score),GlcA(b1-3)Gal,-0.355
same,glycan array binding signal (z-score),GlcA(b1-3)GlcNAc,-0.359
same,glycan array binding signal (z-score),GlcA(b1-6)Gal,-0.307
same,glycan array binding signal (z-score),[13],-0.349
